According to the supplement of paper PMC11060735:
Several values for one entry are separate records, joined by “and”; a condition that tells them apart may be missing. Identical values can stand only once. Counter-ions that a name gives are not always drawn. Out of some 1,800 compounds screened, about 50 (3%) showed activity. The list shows a part of the results.

Test system: mouse p16Ink4a+/- lung fibroblasts (INKBRITE, bleomycin-injured)
Assay: percentage of GFP+ (p16Ink4a+) fibroblasts among all cells in well; higher = less depletion of p16Ink4a+ cells, active = 20 or less
Details: 1 µM; 3 days
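Also: fibroblasts sorted 14 days after bleomycin, GFP+ and GFP− mixed 1:1 in 384-well plates (GFP− as in-well control), imaged after Hoechst and NucView530 staining, reference wells lacked compound.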

Compound	percentage of GFP+
COc1cc2nc(N3CCN(C(=O)C4CCCO4)CC3)nc(N)c2cc1OC (stereo not drawn) [Terazosin]	inactive: 47.2%
COc1cc(OC)c(C(=O)CCCN2CCCC2)c(OC)c1 [Buflomedil, Buflomedil Hydrochloride]	inactive: 39.9%
COc1ccc(C2=NC(c3ccc(Cl)cc3)C(c3ccc(Cl)cc3)N2C(=O)N2CCNC(=O)C2)c(OC(C)C)c1 (stereo not drawn) [Nutlin-3]	inactive: 44.3%
O=c1cc(-c2ccccc2)oc2cc(O)c(O)c(O)c12 [Baicalein]	inactive: 39.1%
COc1ccc(C2CNC(=O)C2)cc1OC1CCCC1 (stereo not drawn) [Rolipram]	inactive: 40.3%
CC[C@@H]1C(=O)N(C)c2cnc(Nc3ccc(C(=O)NC4CCN(C)CC4)cc3OC)nc2N1C1CCCC1	inactive: 27.9%
CC(=O)S[C@@H]1CC2=CC(=O)CC[C@]2(C)[C@H]2CC[C@@]3(C)[C@@H](CC[C@@]34CCC(=O)O4)[C@H]12 [Spironolactone]	inactive: 43.4%
Cn1ccnc1S [Methimazole]	inactive: 45.9%
COc1ccc2[nH]c(S(=O)Cc3ncc(C)c(OC)c3C)nc2c1 (stereo not drawn) [Esomeprazole; Omeprazole]	inactive: 43.4% and inactive: 32.8%
CC[C@@]1(O)C(=O)OCc2c1cc1n(c2=O)Cc2cc3c(CN(C)C)c(O)ccc3nc2-1 [Topotecan, Topotecan Hydrochloride]	inactive: 29.3%
Nc1nc(O)c2ncn([C@@H]3O[C@H](CO)[C@@H](O)[C@H]3O)c2n1 [Guanosine]	inactive: 39.5%
CNC(=O)c1ccc(-c2cnc3ncc(Cc4ccc5ncccc5c4)n3n2)cc1F	inactive: 55.8%
COc1cc(N2CCC(N)CC2)ccc1Nc1ncc(Cl)c(-c2c[nH]c3ccccc23)n1	inactive: 52.7%
O=C[C@H](O)[C@@H](O)[C@H](O)CO [Xylose]	inactive: 42.5%
Cc1ccccc1N1C(=O)c2cc(S(N)(=O)=O)c(Cl)cc2NC1C (stereo not drawn) [Metolazone]	inactive: 51.2%
COc1ccccc1OCCNCC(O)COc1cccc2[nH]c3ccccc3c12 (stereo not drawn) [Carvedilol, Carvedilol Phosphate]	inactive: 40.9%
COc1cc(Cc2cnc(N)nc2N)cc(OC)c1OC [Trimethoprim]	inactive: 46.9%
COc1ccc2c(c1)c(CC(=O)N1CCOCC1)c(C)n2C(=O)c1ccc(Cl)cc1	inactive: 41.2%
O=C(CCCCCCNC(=O)c1cnc(N(c2ccccc2)c2ccccc2)nc1)NO [Rocilinostat]	inactive: 46.4%
COc1nc(C)cnc1NS(=O)(=O)c1cccnc1-c1ccc(-c2nnco2)cc1 [Zibotentan]	inactive: 33.2%
COc1cc2c(Oc3ccc(NC(=O)C4(C(=O)Nc5ccc(F)cc5)CC4)cc3F)ccnc2cc1OCCCN1CCOCC1 [Foretinib]	inactive: 36%
CCOc1cc(N)c(Cl)cc1C(=O)NCC1CN(Cc2ccc(F)cc2)CCO1 (stereo not drawn) [Mosapride, Mosapride Citrate]	inactive: 37.1%
OC[C@@H](O)CN1CCN(c2ccccc2)CC1 [Levodropropizine]	inactive: 43.8%

Compound	percentage of GFP+
C[C@H](Cn1cnc2c(N)ncnc21)OCP(=O)(O)O [Tenofovir]	inactive: 36.4%
Cc1ncc([N+](=O)[O-])n1CC(O)CCl (stereo not drawn) [Ornidazole]	inactive: 43.3%
OCCOCCN1CCN(C2=Nc3ccccc3Sc3ccccc32)CC1 [Quetiapine]	inactive: 44.3%
Cc1cc([C@@H](C)Nc2ccccc2C(=O)O)c2nc(N3CCOCC3)cc(=O)n2c1	inactive: 48.8%
COc1ccc2cc(-c3[nH]c(-c4ccc(S(C)=O)cc4)nc3-c3ccncc3)ccc2c1 (stereo not drawn) [Tie2 kinase inhibitor]	inactive: 43.3%
Cc1cc(C#N)cc(C)c1Oc1nc(Nc2ccc(C#N)cc2)nc(N)c1Br [Etravirine]	inactive: 35%
COc1ccc2cccc(CCNC(C)=O)c2c1 [Agomelatine]	inactive: 39.1%
Cn1cc(-c2cnn3c(N)c(Br)c([C@@H]4CCCNC4)nc23)cn1	inactive: 33.3%
O=C(NCCCNc1nc(Nc2cccc(NC(=O)N3CCCC3)c2)ncc1I)c1cccs1	inactive: 49.3%
COc1cccc2c1C(=O)c1c(O)c3c(c(O)c1C2=O)C[C@@](O)(C(C)=O)C[C@@H]3O[C@H]1C[C@H](N)[C@H](O)[C@H](C)O1 [Daunorubicin]	inactive: 24.3%
c1ccc(CNc2nc(NCc3ccccc3)c3ccccc3n2)cc1	inactive: 52.1%
CC(C)NC[C@@H](C(=O)N1CCN(c2ncnc3c2[C@H](C)C[C@H]3O)CC1)c1ccc(Cl)cc1	inactive: 48.3%
COc1ccc(/C=C/C(=O)Nc2ccccc2C(=O)O)cc1OC [Tranilast]	inactive: 48.4%
CC(C)(C)c1cnc(CSc2cnc(NC(=O)C3CCNCC3)s2)o1	inactive: 28.7%
CN(C)C(=O)c1cc2cnc(Nc3ccc(N4CCNCC4)cn3)nc2n1C1CCCC1 [Ribociclib]	inactive: 33.4%
CNS(=O)(=O)Cc1ccc2[nH]cc(CCN(C)C)c2c1 [Sumatriptan]	inactive: 41.3%
NS(=O)(=O)c1cc(C(=O)O)c(NCc2ccco2)cc1Cl [Furosemide]	inactive: 44.2%
Cn1cc(-c2[nH]c3cc(NC(=O)[C@H](N)C4CCCCC4)cc4c3c2C=NNC4=O)cn1	inactive: 34.8%
CCn1cc(-c2ccnc3[nH]c(-c4cccc(CN(C)C)c4)cc23)c(-c2ccc(NC(=O)N(C)C)cc2)n1	inactive: 36.6%
C#Cc1cccc(Nc2ncnc3cc(OC)c(OCCCCCCC(=O)NO)cc23)c1	inactive: 37.4%
O=C(Nc1ccc2c(=O)cc(-c3nn[nH]n3)oc2c1)c1ccc(OCCCCc2ccccc2)cc1 [Pranlukast]	inactive: 35.1%
NS(=O)(=O)c1cc2c(cc1Cl)NC=NS2(=O)=O [Chlorothiazide]	inactive: 47.1%
O=c1n(CCCN2CCN(c3cccc(Cl)c3)CC2)nc2ccccn12 [Trazodone]	inactive: 47.3%

Compound	percentage of GFP+
O=C(Nc1ccncc1)c1cc([N+](=O)[O-])ccc1Cl	inactive: 37.9%
Nc1cc(F)ccc1NC(=O)/C=C/c1cnn(C/C=C/c2ccccc2)c1	inactive: 42.8%
CN(c1ncccc1CNc1nc(Nc2ccc3c(c2)CC(=O)N3)ncc1C(F)(F)F)S(C)(=O)=O	inactive: 47.5% and inactive: 35.2% and inactive: 41.3%
CN1CCN(c2c(F)cc3c(=O)c(C(=O)O)cn4c3c2OCN4C)CC1 [Marbofloxacin]	inactive: 37.3%
COc1cc2c(Nc3ccc(NC(=O)c4ccccc4)cc3)ncnc2cc1OCCCN1CCOCC1	inactive: 42%
CC[C@H](C)[C@H]1O[C@]2(CC[C@@H]1C)C[C@@H]1C[C@@H](C/C=C(\C)[C@@H](O[C@H]3C[C@H](OC)[C@@H](O[C@H]4C[C@H](OC)[C@@H](O)[C@H](C)O4)[C@H](C)O3)[C@@H](C)/C=C/C=C3\CO[C@@H]4[C@H](O)C(C)=C[C@@H](C(=O)O1)[C@]34O)O2 [Ivermectin]	inactive: 37.9%
CC(NC(=O)c1ccccc1/N=C/c1c(O)ccc2ccccc12)c1ccccc1 (stereo not drawn) [Sirtinol]	inactive: 41.1%
CN(C)CC(c1ccc(O)cc1)C1(O)CCCCC1 (stereo not drawn) [Desvenlafaxine]	inactive: 48.3% and inactive: 52.9%
Cc1[nH]c2ccccc2c1CCNCc1ccc(/C=C/C(=O)NO)cc1 [Panobinostat]	active: 2.9%
CC(C)CC(N)=O [Isovaleramide]	inactive: 51.2%
COCCCOc1cc(C[C@@H](C[C@H](N)[C@@H](O)C[C@H](C(=O)NCC(C)(C)C(N)=O)C(C)C)C(C)C)ccc1OC [Aliskiren]	inactive: 43.2%
Nc1ncn([C@H]2C[C@H](O)[C@@H](CO)O2)c(=O)n1 [Decitabine]	inactive: 31%
CN(C)C(=O)COC(=O)Cc1ccc(OC(=O)c2ccc(NC(=N)N)cc2)cc1 [Camostat]	inactive: 41.3%
CCCCC(=O)N(Cc1ccc(-c2ccccc2-c2nn[nH]n2)cc1)[C@H](C(=O)O)C(C)C [Valsartan]	inactive: 41.6%
O=C(O)c1cc(N=Nc2ccc(S(=O)(=O)Nc3ccccn3)cc2)ccc1O [Sulfasalazine]	inactive: 39.2%
Cn1cnc2c(F)c(Nc3ccc(Br)cc3Cl)c(C(=O)NOCCO)cc21 [Selumetinib]	inactive: 43.8%
O=C(c1ccc(C(=O)N2CCC(N3CCCC3)CC2)c(Nc2ccccc2)c1)N1CCC(N2CCCC2)CC1	inactive: 43.6%
CC[C@H](C)C(=O)O[C@H]1CCC=C2C=C[C@H](C)[C@H](CC[C@@H]3C[C@@H](O)CC(=O)O3)[C@H]21 [Mevastatin]	inactive: 48.9%
CC[C@]1(O)C[C@@H]2CN(CCc3c([nH]c4ccccc34)[C@@](C(=O)OC)(c3cc4c(cc3OC)N(C)[C@@H]3C45CCN4CC=C[C@](CC)([C@H]45)[C@@H](OC(C)=O)[C@]3(O)C(=O)OC)C2)C1 (stereo partly drawn) [Vinblastine]	inactive: 24.8%
NC(=O)Cc1cccc(C(=O)c2ccccc2)c1N [Nepafenac]	inactive: 44.9%
C=C1CC[C@H](O)C/C1=C/C=C1\CCC[C@]2(C)[C@@H]([C@H](C)/C=C/[C@H](C)C(C)C)CC[C@@H]12 [Ergocalciferol]	inactive: 44.9%
Cc1onc(-c2c(Cl)cccc2Cl)c1C(=O)N[C@@H]1C(=O)N2[C@@H]1SC(C)(C)[C@@H]2C(=O)O [Dicloxacillin]	inactive: 49.2%
